# Some of the results follow.
# Experiments:
# Experiment in all cases: glycan array binding signal (z-score within array); higher = stronger binding
# Conditions in all cases: glycan notation: IUPAC condensed, linker removed
# [1] = target: Gal(b1-4)GlcNAc(b1-6)[Gal(b1-3)]GalNAc
# Method in brief: (§1)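 Glycan array data were curated from 3228 arrays in the Consortium for Functional Glycomics database and kept only where the protein sequence was available. Glycan names were converted to IUPAC-condensed notation, and columns mapping to the same glycan were averaged. The binding signal is a within-array Z-score, averaged across arrays of the same protein sequence at different concentrations or buffers and across linkers. Negative Z-scores can be read as non-binding.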
# Gal(b1-6)Gal = target: Gal(b1-6)Gal
# Method in brief: as §1
# Gal3S(b1-3)GalNAc = target: Gal3S(b1-3)GalNAc
# Method in brief: as §1
# Gal3S(b1-3)GlcNAc = target: Gal3S(b1-3)GlcNAc
# Method in brief: as §1
# [2] = target: Gal3S(b1-3)[Fuc(a1-4)]GlcNAc
# Method in brief: as §1
# Gal3S(b1-4)Glc = target: Gal3S(b1-4)Glc
# Method in brief: as §1
# Gal3S(b1-4)Glc6S = target: Gal3S(b1-4)Glc6S
# Method in brief: as §1
# Gal3S(b1-4)GlcNAc = target: Gal3S(b1-4)GlcNAc
# Method in brief: as §1
# Gal3S(b1-4)GlcNAc6S = target: Gal3S(b1-4)GlcNAc6S
# Method in brief: as §1
# [3] = target: Gal3S(b1-4)[Fuc(a1-3)]Glc
# Method in brief: as §1
# [4] = target: Gal3S(b1-4)[Fuc(a1-3)]Glc6S
# Method in brief: as §1
# Gal3S4S(b1-4)GlcNAc = target: Gal3S4S(b1-4)GlcNAc
# Method in brief: as §1
# Gal3S6S(b1-4)GlcNAc = target: Gal3S6S(b1-4)GlcNAc
# Method in brief: as §1
# Gal3S6S(b1-4)GlcNAc6S = target: Gal3S6S(b1-4)GlcNAc6S
# Method in brief: as §1
# Gal4S(b1-4)GlcNAc = target: Gal4S(b1-4)GlcNAc
# Method in brief: as §1
# Gal4S6S(b1-4)GlcNAc = target: Gal4S6S(b1-4)GlcNAc
# Method in brief: as §1
# Gal6S(b1-3)GlcNAc = target: Gal6S(b1-3)GlcNAc
# Method in brief: as §1
# Gal6S(b1-3)GlcNAc6S = target: Gal6S(b1-3)GlcNAc6S
# Method in brief: as §1
# Gal6S(b1-4)Glc = target: Gal6S(b1-4)Glc
# Method in brief: as §1
# Gal6S(b1-4)Glc6S = target: Gal6S(b1-4)Glc6S
# Method in brief: as §1
# Gal6S(b1-4)GlcNAc = target: Gal6S(b1-4)GlcNAc
# Method in brief: as §1
# Gal6S(b1-4)GlcNAc6S = target: Gal6S(b1-4)GlcNAc6S
# Method in brief: as §1
# GalNAc(a1-3)Gal = target: GalNAc(a1-3)Gal
# Method in brief: as §1
# GalNAc(a1-3)GalNAc = target: GalNAc(a1-3)GalNAc
# Method in brief: as §1
# [5] = target: GalNAc(a1-3)GalNAc(a1-3)Gal(a1-4)Gal(b1-4)GlcNAc
# Method in brief: as §1
# [6] = target: GalNAc(a1-3)GalNAc(b1-3)Gal(a1-4)Gal(b1-4)Glc
# Method in brief: as §1
# GalNAc(b1-3)Gal = target: GalNAc(b1-3)Gal
# Method in brief: as §1
# [7] = target: GalNAc(b1-3)Gal(a1-4)Gal(b1-4)GlcNAc
# Method in brief: as §1
# [8] = target: GalNAc(b1-3)Gal(a1-4)Gal(b1-4)GlcNAc(b1-3)Gal(b1-4)Glc
# Method in brief: as §1
# [9] = target: GalNAc(b1-3)Gal(a1-6)Gal(b1-4)Glc
# Method in brief: as §1
# GalNAc(b1-3)GalNAc = target: GalNAc(b1-3)GalNAc
# Method in brief: as §1
# GalNAc(b1-4)GlcNAc = target: GalNAc(b1-4)GlcNAc
# Method in brief: as §1
# [10] = target: GalNAc(b1-4)GlcNAc(b1-2)Man(a1-3)[GalNAc(b1-4)GlcNAc(b1-2)Man(a1-6)]Man(b1-4)GlcNAc(b1-4)GlcNAc
# Method in brief: as §1
# GalNAc(b1-6)GalNAc = target: GalNAc(b1-6)GalNAc
# Method in brief: as §1
# Glc(a1-4)Glc = target: Glc(a1-4)Glc
# Method in brief: as §1
# Glc(a1-6)Glc(a1-6)Glc = target: Glc(a1-6)Glc(a1-6)Glc
# Method in brief: as §1
# Glc(b1-4)Glc = target: Glc(b1-4)Glc
# Method in brief: as §1
# Glc(b1-6)Glc = target: Glc(b1-6)Glc
# Method in brief: as §1
# GlcA(b1-3)Gal = target: GlcA(b1-3)Gal
# Method in brief: as §1
# GlcA(b1-3)GlcNAc = target: GlcA(b1-3)GlcNAc
# Method in brief: as §1
# GlcA(b1-6)Gal = target: GlcA(b1-6)Gal
# Method in brief: as §1
# [11] = target: GlcNAc(a1-3)Gal(b1-4)GlcNAc
# Method in brief: as §1
# [12] = target: GlcNAc(a1-4)Gal(b1-3)GlcNAc
# Method in brief: as §1
# [13] = target: GlcNAc(a1-4)Gal(b1-4)GalNAc
# Method in brief: as §1
# [14] = target: GlcNAc(a1-4)Gal(b1-4)GlcNAc
# Method in brief: as §1
binder,measurement,setting,value
Gal 7 (Canis lupus) (protein) MAGSSNVPHKTSLPEGIRVGTVMRIRGVVPNKAGRFYVNLLCGEAPGSEAALHFNPRLDESTVVFNTLEQGAWGREERGTGIPFQRGQPFDVLLIATDEGFKAVVGDSEYHHFRYRIPPARVRLLEVGGDLQLESVSVF,glycan array binding signal (z-score),[1],-0.186
same,glycan array binding signal (z-score),Gal(b1-6)Gal,-0.173
same,glycan array binding signal (z-score),Gal3S(b1-3)GalNAc,-0.195
same,glycan array binding signal (z-score),Gal3S(b1-3)GlcNAc,-0.07
same,glycan array binding signal (z-score),[2],-0.213
same,glycan array binding signal (z-score),Gal3S(b1-4)Glc,-0.187
same,glycan array binding signal (z-score),Gal3S(b1-4)Glc6S,-0.148
same,glycan array binding signal (z-score),Gal3S(b1-4)GlcNAc,-0.181
same,glycan array binding signal (z-score),Gal3S(b1-4)GlcNAc6S,-0.161
same,glycan array binding signal (z-score),[3],-0.192
same,glycan array binding signal (z-score),[4],-0.204
same,glycan array binding signal (z-score),Gal3S4S(b1-4)GlcNAc,-0.065
same,glycan array binding signal (z-score),Gal3S6S(b1-4)GlcNAc,-0.206
same,glycan array binding signal (z-score),Gal3S6S(b1-4)GlcNAc6S,-0.212
same,glycan array binding signal (z-score),Gal4S(b1-4)GlcNAc,-0.2
same,glycan array binding signal (z-score),Gal4S6S(b1-4)GlcNAc,-0.205
same,glycan array binding signal (z-score),Gal6S(b1-3)GlcNAc,-0.172
same,glycan array binding signal (z-score),Gal6S(b1-3)GlcNAc6S,-0.179
same,glycan array binding signal (z-score),Gal6S(b1-4)Glc,-0.204
same,glycan array binding signal (z-score),Gal6S(b1-4)Glc6S,-0.213
same,glycan array binding signal (z-score),Gal6S(b1-4)GlcNAc,-0.195
same,glycan array binding signal (z-score),Gal6S(b1-4)GlcNAc6S,-0.191
same,glycan array binding signal (z-score),GalNAc(a1-3)Gal,-0.204
same,glycan array binding signal (z-score),GalNAc(a1-3)GalNAc,-0.211
same,glycan array binding signal (z-score),[5],-0.052
same,glycan array binding signal (z-score),[6],-0.044
same,glycan array binding signal (z-score),GalNAc(b1-3)Gal,-0.205
same,glycan array binding signal (z-score),[7],-0.189
same,glycan array binding signal (z-score),[8],1.22
same,glycan array binding signal (z-score),[9],-0.17
same,glycan array binding signal (z-score),GalNAc(b1-3)GalNAc,-0.214
same,glycan array binding signal (z-score),GalNAc(b1-4)GlcNAc,-0.21
same,glycan array binding signal (z-score),[10],-0.205
same,glycan array binding signal (z-score),GalNAc(b1-6)GalNAc,-0.158
same,glycan array binding signal (z-score),Glc(a1-4)Glc,-0.211
same,glycan array binding signal (z-score),Glc(a1-6)Glc(a1-6)Glc,-0.217
same,glycan array binding signal (z-score),Glc(b1-4)Glc,-0.2
same,glycan array binding signal (z-score),Glc(b1-6)Glc,-0.208
same,glycan array binding signal (z-score),GlcA(b1-3)Gal,-0.219
same,glycan array binding signal (z-score),GlcA(b1-3)GlcNAc,-0.174
same,glycan array binding signal (z-score),GlcA(b1-6)Gal,-0.208
same,glycan array binding signal (z-score),[11],-0.199
same,glycan array binding signal (z-score),[12],-0.215
same,glycan array binding signal (z-score),[13],-0.211
same,glycan array binding signal (z-score),[14],-0.209

# Source: the supplement of paper PMC8728848
